Experimental data from the supplement of paper PMC10126150.
Values marked as one replicate rest on one cluster of the flow cell; about a third of the high ones do not repeat.

These sequences were tested on ATP (assay: switch fluorescence ratio, 500 uM ATP over buffer (Cy3 cluster intensity, sum of 5 cycles each) (fold (ratio)); higher = stronger signal-on switching upon ATP binding; sequences stand for … in TCGTCGGCAGCGTCAGATGTGTATAAGAGACAGTTTTTTTTTTTTTTTTTTTTTTTTT…TC). Settings: aptamer strand: ATP DNA aptamer (quencher-CACCTGGGGGAGTATTGCGGAGGAAGG + anchor), 100 nM annealed; ATP concentration: 500 uM; one replicate.
Method in brief: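 Cy3-labelled switching-strand clusters on a modified Illumina MiSeq flow-cell were annealed to 100 nM quencher-labelled ATP aptamer and imaged first in selection buffer, then after 15 min with 500 uM ATP at 22 °C. NaOH stripping and re-annealing separated each of five buffer/ATP cycles, and clusters outside 100-1000 RFU were excluded. The fluorescence ratio sums target-cycle Cy3 intensity over buffer-cycle Cy3 intensity per cluster and averages it per switch-domain sequence.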
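Note: ATP exposure 15 min at 22 °C before imaging.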

| Sequence | switch fluorescence ratio |
| --- | --- |
| GCACGTAGCA | 1.05 |
| GCACTACTCA | 2.6 |
| GCACTAGGAA | 0.972 |
| GCACTCACCG | 1.28 |
| GCACTCGTCA | 0.98 |
| GCACTCTCAA | 1.14 |
| GCACTGAGTC | 1.04 |
| GCACTGCAGG | 1.02 |
| GCACTTATTG | 0.99 |
| GCAGAATGTA | 1.02 |
| GCAGACATAT | 0.992 |
| GCAGAGCTTT | 1 |
| GCAGAGGACT | 1.06 |
| GCAGCAAAGA | 1.08 |
| GCAGCAGTGG | 2.07 |
| GCAGCATGCT | 1.06 |
| GCAGCCACCA | 1.05 |
| GCAGCCCGAA | 1.03 |
| GCAGCGGCTA | 1.04 |
| GCAGCTGTCA | 0.97 |
| GCAGCTTGTG | 0.963 |
| GCAGGAACTA | 0.988 |
| GCAGGAATGC | 1.45 |
| GCAGGAGATC | 0.98 |
| GCAGGATTCG | 0.954 |

| Sequence | switch fluorescence ratio |
| --- | --- |
| GCAGGCAAGC | 1.05 |
| GCAGGCATGG | 0.947 |
| GCAGGCCGGT | 0.982 |
| GCAGGGGAAA | 0.952 |
| GCAGGGGTGT | 1.07 |
| GCAGGTCACC | 1.04 |
| GCAGGTTTGT | 1 |
| GCAGTAGCCT | 1.01 |
| GCAGTCCAGT | 0.984 |
| GCAGTGAGCA | 0.97 |
| GCAGTGATCA | 1.03 |
| GCAGTGTATC | 0.985 |
| GCATAAAATC | 0.954 |
| GCATACCTCT | 1.06 |
| GCATAGATGC | 0.989 |
| GCATAGGCAG | 0.981 |
| GCATAGTGCG | 1.01 |
| GCATATACCA | 1.2 |
| GCATATCGAA | 1.04 |
| GCATATGTCC | 1.07 |
| GCATATTGC | 1.11 |
| GCATATTGGT | 0.977 |
| GCATCACTGT | 0.957 |
| GCATCGATAA | 0.991 |
| GCATCTCAGG | 1.1 |

| Sequence | switch fluorescence ratio |
| --- | --- |
| GCATCTGTGG | 1.02 |
| GCATCTTTCA | 0.964 |
| GCATGAAATC | 1.06 |
| GCATGCAATC | 1.1 |
| GCATGGACTT | 1.02 |
| GCATGGATCT | 0.982 |
| GCATGGGGGT | 1.02 |
| GCATGGGGTC | 1 |
| GCATGGTAAT | 1.01 |
| GCATGTATTT | 0.952 |
| GCATGTGGAG | 0.999 |
| GCATGTTCAG | 0.982 |
| GCATGTTCGT | 0.985 |
| GCATGTTGAT | 0.998 |
| GCATTACGAT | 2.22 |
| GCATTATCTC | 1.6 |
| GCATTATGGT | 1.02 |
| GCATTCAGCG | 1.03 |
| GCATTCATAG | 1.01 |
| GCATTGAGT | 0.976 |
| GCATTGCAAG | 1.03 |
| GCATTGCTGT | 1 |
| GCATTTATTT | 1.01 |
| GCATTTCGGA | 0.993 |
| GCATTTCTTG | 1.03 |

| Sequence | switch fluorescence ratio |
| --- | --- |
| GCATTTGACA | 1.07 |
| GCATTTGGCG | 1.02 |
| GCATTTTTCC | 0.996 |
| GCATTTTTG | 0.977 |
| GCCAAATAAT | 0.969 |
| GCCAACTTAG | 1.02 |
| GCCAAGTTAA | 1 |
| GCCAATGCCG | 0.946 |
| GCCACAACCG | 1.08 |
| GCCACCAGCT | 1.03 |
| GCCACTAGCT | 0.984 |
| GCCACTATGG | 1.04 |
| GCCACTGTTG | 0.988 |
| GCCACTTCAA | 1.03 |
| GCCAGACACC | 1.04 |
| GCCAGAGCGG | 1.07 |
| GCCAGATTCT | 0.983 |
| GCCAGCTATC | 1.3 |
| GCCAGGAGGA | 1.03 |
| GCCAGGGATC | 0.994 |
| GCCATCACCT | 1.11 |
| GCCATGTAGA | 1.03 |
| GCCATTAGCG | 0.972 |
| GCCCAAGGCA | 0.961 |
| GCCCAATCGC | 1.11 |
